Measurements reported in patent US9957428B2 (priority 2013, dated 2018).

Columns and labels:
[1] = w/w; for Solubility of Z-Dol 2500 in deposition solvent: weight of lubricant to combined weight of lubricant and solvent; for Solubility of Moresco D40H in deposition solvent / Solubility of Z-Tetraol S Grade in deposition solvent: range = highest soluble value to lowest insoluble value
Method: Compounds from Preparatory Examples 1, 2 and 5 were evaluated for utility as deposition solvents based upon solubility for three industrial lubricants (Z-Dol 2500 and Fomblin Z-Tetraol S Grade available from Solvay SA, Brussels, Belgium and Moresco D40H available from Moresco, Kobe-City, Hyogo, Japan). A disposable glass vial was placed on a four-place balance and the mass (My) recorded. The balance with the glass vial was tared and deposition solvent was added (varying from 1 g to 5 g) and the mass (MS) was recorded. The balance with the deposition solvent in the glass vial was tared again. The lubricant was added in a dropwise fashion using a disposable plastic pipette and the mass (ML) recorded. The glass vial was then mixed by hand for 10 seconds to 30 seconds and the solution clarity was visually observed and recorded. If the solution was hazy, the lubricant was considered to have exceeded the solubility limit of the deposition solvent. If the solution was clear, additional drops of lubricant were added to the glass vial, the mass (ML) was recorded, the glass vial was shaken, and the solution clarity was observed. This process was continued until a hazy solution was observed or more than 10% w/w (weight of lubricant to combined weight of lubricant and deposition solvent) was reached. After a hazy solution or more than 10% w/w was reached, the glass vial with the solution was removed from the balance. The balance was tared and the final mass (Mp) of the glass vial with deposition solvent and lubricant was measured and recorded. To account for the evaporative losses of the deposition solvent during the experiment, the mass of the vial and the mass of the lubricant added were subtracted from the total mass of the vial with the deposition solvent and lubricant to determine the final mass of deposition solvent (Ms*) in the vial (i.e., Ms*=MF−My−ML). Solubility of the lubricant in deposition solvents was calculated as (ML+MS*) and reported in % w/w (weight/weight).
The lubricants described above were mixed with deposition solvents and the solubility results are shown in Table 8 compared to Novec 7100 fluid available from 3M Company, St. Paul, Minn., USA. If the endpoint was not clearly observed, the solubility experiment was repeated. Where a range is reported for solubility, the lower number is the highest soluble value and the higher number is the lowest insoluble value.

[2] = Method: Vapor Pressure was measured using the stirred-flask ebuilliometer method described in ASTM E-1719-97 “Vapor Pressure Measurement by Ebuilliometry”. This method is also referred to as “Dynamic Reflux”. The boiling point was measured using ASTM D1120-94 “Standard Test Method for Boiling Point of Engine Coolants”.
The method uses a 50-mL glass round-bottom flask. Vacuum was measured and controlled using a JKEM vacuum controller. The pressure transducer was calibrated on the day of measurement by comparison with full vacuum and with an electronic barometer located in the same laboratory. The procedure was to begin slowly heating the material, then applying vacuum until boiling occurred and a steady drop wise reflux rate was established. Distillate temperature and pressure reading were recorded, then the vacuum controller was set for a higher absolute pressure and the material was heated further until a new reflux point was established. The pressure level was raised in increments until the vapor pressure curve was obtained up to the atmospheric boiling point.

Row | Compound | Solubility of Z-Dol 2500 in deposition solvent [1] [%] | Solubility of Moresco D40H in deposition solvent [1] | Solubility of Z-Tetraol S Grade in deposition solvent [1] | Boiling Point at 760 mm Hg [2] [°C] | Vapor Pressure at 131° F. (55°) [2] [mm Hg]
1 | FC(=C(F)C(F)(F)F)N(C(F)(F)F)C(F)(F)C(F)(F)F [Preparatory Example 5, 1,2,3,3,3-pentafluoro-N-(1,1,2,2,2-pentafluoroethyl)-N-(trifluoromethyl)prop-1-en-1-amine] | >10 | ~0.25% | <<1% | – | –
2 | F/C(=C(/F)C(F)(F)F)N1C(F)(F)C(F)(F)OC(F)(F)C1(F)F [Preparatory Example 2, 2,2,3,3,5,5,6,6-octafluoro-4-(1,2,3,3,3-pentafluoroprop-1-enyl)morpholine] | >10 | 0.67-0.98% | 0.67-0.98% | – | –
3 | FC(=C(F)C(F)(F)F)N(C(F)(F)F)C(F)(F)F [Preparatory Example 1, 1,2,3,3,3-pentafluoro-N,N-bis(trifluoromethyl)prop-1-en-1-amine] | >10 | 0.25-0.33% | <<1% | 85.1 | 266.6
